This passage reports displacement results from PubChem BioAssay AID1240 (Sanford-Burnham Center for Chemical Genomics, 2008).

The structures appear in SMILES notation. The whole screen tested about 50,000 compounds, of which about 800 (1.6%) showed an effect of 50% or more. The list shows a part of the results.

In the experiment the target is Bcl-2-like protein 10 (Homo sapiens) (UniProt Q9HD36). The experiment can be described thus: TR3 peptide-Bcl-B binding displacers, biochemical primary FP assay, phenotype converters (AID 1240).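 Also: 0% = Bcl-B with tracer peptide and DMSO and 100% = tracer peptide lacking Bcl-B.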 The note with it: GST-Bcl-B / FITC-TR3 peptide fluorescence polarization; stronger effect = higher value; compound at 3.75 mg/L.
Sequence of UniProt Q9HD36 (Q9HD36 whole entry, looked up): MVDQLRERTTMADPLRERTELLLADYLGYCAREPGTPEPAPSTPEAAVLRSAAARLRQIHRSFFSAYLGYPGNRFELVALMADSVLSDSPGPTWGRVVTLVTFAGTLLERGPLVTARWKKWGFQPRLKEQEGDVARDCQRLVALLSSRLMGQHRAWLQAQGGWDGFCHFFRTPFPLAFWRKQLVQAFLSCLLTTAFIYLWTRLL
Take `COCC(=O)N/N=C/c1ccc(OC/C=C/Cl)cc1`: the displacement was -4.3%.
For `Cc1cccc(OCCSc2nc3ccccc3n2CC(=O)O)c1` the value was 6.2%; for `COc1cccc(C(=O)N2CCN(Cc3ccccc3[N+](=O)[O-])CC2)c1OC`, -7.2%; for `Cc1ccc(/C(O)=C/C(=O)C(=O)NCc2ccccc2)cc1`, -0.9%.
With `COc1ccc(NC(=O)COc2ccc(-c3ccc(C)cc3)cc2)c([N+](=O)[O-])c1`, the displacement worked out at 1.9%.
For `O=[N+]([O-])c1cc(N=Cc2ccc(Br)s2)ccc1Cl` the value was 1.3%; for `Cc1ccccc1/C=C1/SC(=Nc2ccc(F)cc2)NC1=O`, 7.8%.
For `COC(=O)C1=C(C)NC(C)=C(C(=O)OC)C1c1ccc(C)o1` the value was 0.5%; for `O=C(CSc1nc2ccccc2s1)Nc1cc2c(cc1Br)OCCO2`, 1.9%; for `O=C(/C=C/c1ccccc1Cl)c1c(-c2ccccc2)c2cc(Br)ccc2[nH]c1=O`, -1.5%.
For `O=C1C2ON(c3ccccc3)C(c3ccc(F)cc3)C2C(=O)N1c1ccc(N2CCOCC2)cc1` (stereo not drawn) the value was -0.6%; for `CCOc1ccc(NC(=O)CN(Cc2ccccc2)S(=O)(=O)c2ccccc2)cc1`, -3.3%; for `O=C1c2cccc3c(N4CCNCC4)ccc(c23)C(=O)N1c1ccc(Cl)cc1`, 101%.
As for `O=C1c2ccccc2C(=O)c2c1cc(Nc1ccccc1)c1nsnc21`, the displacement is -14.8%.
To `Cc1cc([N+](=O)[O-])ccc1-c1ccc(/C=C2/C(=O)NC(=S)N(c3ccc(Cl)cc3)C2=O)o1` belongs -3.9%; to `S=C(NCCOc1cccc2ccccc12)Nc1cccc2ccccc12`, 12%.
For the compound `O=C1CC(N2CCN(c3ccccn3)CC2)C(=O)N1c1ccc(Br)cc1` (stereo not drawn), the displacement is 10.9%.
On to `CC1=C(c2ccccc2)[N+](=O)C(C)(C)N1[O-]`, for which the displacement is 7.8%.
For `CC1CCCCN1C(=O)c1cc2nc(-c3cccs3)cc(C(F)(F)F)n2n1` (stereo not drawn) the value was 18.3%.
To `Cc1cccc(NC(=O)c2ccc(NC(=O)COc3ccc(Cl)cc3Cl)cc2)c1` belongs -11.4%; to `Cc1ccc(-n2nc3cc(C)c(NC(=O)COc4ccc(Cl)cc4)cc3n2)cc1`, 4.5%; to `Cc1ccc(N(CC(N)=O)S(=O)(=O)c2ccccc2)c(C)c1`, 8.3%.
For `C/C=C/COC(=O)C1=C(C)NC(=O)NC1c1cccc(Br)c1` (stereo not drawn) the value was 3.2%; for `CCOC(=O)c1sc2nc(NC(=O)c3ccc([N+](=O)[O-])cc3)sc(=O)c2c1C`, 4.4%; for `COc1ccccc1NC(=O)Nc1cccnc1`, -8.5%.
With `COCCOC(=O)c1ccc(NC(=O)c2ccc(Cl)cc2)cc1`, the displacement turned out to be 10.6%.
To `O=C(O)CN1C(=O)/C(=C/c2ccc(OCc3ccc(Cl)cc3Cl)cc2)SC1=S` belongs 22.2%; to `O=C(Cc1ccc(F)cc1F)Nc1ccc(Cl)cc1Cl`, 6.9%; to `CCc1cc2c(C)cc(=O)oc2cc1OCC(C)=O`, -5.2%.
For `Cc1cnn(-c2cc(N/N=C/c3ccc(O)cc3)ncn2)c1` the value was -4.5%; for `CC(C)c1ccc(N(CC(N)=O)S(=O)(=O)c2ccccc2)cc1`, -5.2%.
To `CCOc1ccccc1C1Nc2ccccc2NC2=C1C(=O)CC(c1ccc(OC)c(OC)c1)C2` (stereo not drawn) belongs 11.3%.
Regarding `O=C(/C=C/c1ccc(Cl)cc1Cl)Nc1c(F)c(F)c(F)c(F)c1F`, the displacement was -9.9%.
To `O=C(NOC(=O)c1ccccc1I)c1ccc(Cl)cc1` belongs 2%; to `CCN(CC)C(=O)c1ccccc1NC(=O)c1ccccc1`, 21.3%.
To `Cc1ccc(C(=O)Nc2ccc(Cl)cc2)cc1[N+](=O)[O-]` belongs 11%.
For `CCc1ccc(C(C)NC(=O)Cc2ccccc2)cc1` (stereo not drawn) the value was 3.7%.
Consider `CCOC(=O)C1=C(O)/C(=C/c2cccc([N+](=O)[O-])c2)SC1=Nc1cccc(Cl)c1`, for which the displacement is -10.2%.
To `O=C(Cc1cccs1)N1CCN(c2cccc(Cl)c2)CC1` belongs 9.2%; to `Cc1ccc(-c2ccc(OCC(=O)Nc3ccc(S(=O)(=O)Nc4onc(C)c4C)cc3)cc2)cc1`, -1.3%; to `CC(=O)CC(=O)Nc1ccc2c(c1)OCO2`, -8.9%.
For `NS(=O)(=O)c1ccc(-c2ccc(/C=C3\Sc4ccccc4C3=O)o2)cc1` the value was -71.8%.
For `Cc1cc(/C=N/NC(N)=S)c(C)n1-c1ccc(Br)cc1` the value was -21.7%.
As to `C=CCn1c(/N=C/c2ccc3c(c2)OCO3)nc2ccccc21`, the displacement stood at 0%.
For `CN(C)c1ccc(/C=C/C(=O)c2ccc(Br)cc2)o1` the value was -16.1%; for `Cc1ccc(-n2c(C)c([N+](=O)[O-])c3ccc(O)cc32)cc1`, 7.6%; for `CC(=O)NC(C)C12CC3CC(CC(C3)C1)C2` (stereo not drawn), 10.9%.
Regarding `COc1ccc(C(=O)N2CCC(c3ccccc3)C2)cc1` (stereo not drawn), the displacement is 10%.
To `Cc1ccc(N(Cc2ccc(C(=O)Nc3cccc(Br)c3)cc2)S(C)(=O)=O)cc1C` belongs 6.6%; to `COc1cccc(OCCOc2cccc(/C=C3/SC(=S)NC3=O)c2)c1`, 3%; to `COc1ccc(NCN2C(=O)C3C4C=CC(C4)C3C2=O)cc1` (stereo not drawn), 2.3%.
Consider `CC(=O)Nc1ccc(NC(=O)c2cc(Cl)ccc2Cl)cc1`, for which the displacement is 1.1%.
For `O=C1C2C3C=CC(C3)C2C(=O)N1CCc1ccccc1` (stereo not drawn), the displacement stood at 10.1%.
For `C=CCOc1ccc(/C=C/C(=O)c2ccc(Br)cc2)cc1` the value was 10%; for `COc1ccc(-c2nc3ccccc3o2)cc1NC(=O)c1ccc(Br)o1`, 63%; for `COc1ccc(OC)c(N/C(N)=N/c2nc(C(F)(F)F)cc(=O)[nH]2)c1`, -70%.
To `O=C(CCCN1C(=O)/C(=C\c2cccs2)SC1=S)Nc1ccc(F)c(Cl)c1` belongs 3.9%; to `COC(=O)C1=C(C)N=c2s/c(=C/c3cc(Br)ccc3OC(C)=O)c(=O)n2C1c1ccc(OC(C)=O)cc1` (stereo not drawn), 4.4%.
For `C=CCOC(=O)C1=C(C)NC(C)=C(C(=O)OCC=C)C1c1ccco1` the value was 7.5%.
`COc1ccc(C2c3c(n[nH]c3C)CC(C)(O)C2C(C)=O)cc1OC` (stereo not drawn): the displacement is -5.8%.
With `CC(=O)Nc1ccc(S(=O)(=O)NNC(=O)c2ccc(-c3ccccc3)cc2)cc1`, the displacement was -3.8%.
In the case of `COc1ccc(Cl)cc1C(=O)Nc1nc2ccc(Cl)cc2s1`, the displacement was -3.9%.
To `O=C(c1ccc(Cl)cc1)N(c1ccc(Cl)cc1)C1C=CS(=O)(=O)C1` (stereo not drawn) belongs -2.9%; to `OCCNC(=S)Nc1ccc2nc(-c3ccccc3)c(-c3ccccc3)nc2c1`, 35.9%; to `CCOC(=O)C(Cc1c[nH]c2ccccc12)NC(=O)c1cc2ccccc2oc1=O` (stereo not drawn), 11.4%.
To `O=C(c1ccc([N+](=O)[O-])cc1)N1CCN(C2CCCC2)CC1` belongs -8.6%; to `O=c1c2ccccc2nc(SCc2ccc([N+](=O)[O-])cc2)n1-c1ccccc1`, -12.1%; to `O=C(COc1ccc(Cl)cc1)NNC(=O)Cc1cccc2ccccc12`, -8.3%.
